This passage reports IC50 results from PubChem BioAssay (NCATS).

Some of the results follow. Further columns of the screen follow, without active or inactive calls. Compounds called inactive in the main read-out are mostly missing here. The note in brackets gives the kind of curve behind each potency; many fits are weak.
Tags tell the direction and shape of the fitted curve.

The assay has as its target Histamine N-methyltransferase (Homo sapiens) (UniProt P50135). Briefly: Confirmatory Screen for Target Class Profiling of Small Molecule Inhibitors of Methyltransferases (AID 1745852).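 Also: inhibitor potency for blocking SAH production.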 The following applies: MTase-Glo luminescence, SAH detection, recombinant enzyme; measured here: HNMT inhibition potency.
Chain of UniProt P50135 (P50135 whole entry, looked up): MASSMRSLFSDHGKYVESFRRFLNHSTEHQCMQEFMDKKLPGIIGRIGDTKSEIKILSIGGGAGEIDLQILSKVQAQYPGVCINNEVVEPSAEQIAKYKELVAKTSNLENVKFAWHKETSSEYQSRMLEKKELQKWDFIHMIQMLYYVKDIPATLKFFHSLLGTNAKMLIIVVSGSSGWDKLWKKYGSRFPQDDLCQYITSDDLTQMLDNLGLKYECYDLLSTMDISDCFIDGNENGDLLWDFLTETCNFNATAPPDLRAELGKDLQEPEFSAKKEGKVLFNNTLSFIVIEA
`c1ccc(-c2cc3c(cn2)NCCN(Cc2ccccn2)C3)cc1`: the IC50 is 35 µM [falling, partial curve].

Regarding `O=C(NCCCN1CCc2ccccc2C1)C1CCc2ncc(-c3ccc(F)cc3)n2C1` (stereo not given), the IC50 was 21.5 µM [falling, partial curve].

As for `Cc1cnc(C2CCC2)n1C1CCN(C(=O)CCC2CCCC2)CC1`, the IC50 is 15.2 µM [falling, partial curve].

Take `CCCCNC(=O)c1cccc(-c2cc(N3CCN(C)CC3)nc(N)n2)c1`: the IC50 is 6.07 µM [falling, partial curve].

On to `Cc1cc(NC(=O)NCCN2CCC(O)(Cc3ccccc3)CC2)c2ccccc2n1`, for which the IC50 is 19.2 µM [falling, partial curve].

`O=C(Cc1ccsc1)Nc1ccc2c(N3CCCC3)ncnc2c1`: the IC50 was 6.81 µM [falling, partial curve].

Regarding `CC1=C[C@@H](CN(CC2CC2)CC2CC2)[C@H](C(C)C)C[C@H]1Cc1nc2ccncc2[nH]1`, the IC50 was 17.5 µM [falling, partial curve].

Consider `CN1CCN(C)c2cnc(-c3cnn(Cc4ccccc4)c3)cc2C1`, for which the IC50 was 31.2 µM [falling, partial curve].

For the molecule `Nc1c(NC/C=C\COc2cc(CN3CCCCC3)ccn2)c(=O)c1=O`, the IC50 was 19.2 µM [falling, partial curve].

On to `CCC1CCCCN1CCCNC(=O)Cn1ccc2cc(S(=O)(=O)N3CCCCC3)ccc21` (stereo not given), for which the IC50 is 6.81 µM [falling, partial curve].

`c1cc(OCCCN2CCCCC2)ccc1CN1CCCCC1`: the IC50 is 17.1 µM [falling, partial curve].

Take `COC(=O)[C@H](Cc1cccc(C(=N)N)c1)[C@@H](C)NC(=O)c1ccc(-c2cc[n+]([O-])cc2)cc1`: the IC50 was 17.1 µM [falling, partial curve].

Take `Cn1ccc2c(C(=O)NCCc3cnc[nH]3)nc(-c3ccc(N4CCOCC4)cc3)cc21`: the IC50 was 31.2 µM [falling, partial curve].

With `CCOC(=O)c1cccc(Nc2cc(C)nc3ccc(C)cc23)c1`, the IC50 was 6.81 µM [falling, full curve].

Take `CN1CCC(N2C[C@@H]3C[C@H]2C(=O)N(CC2CC2)c2ccccc2O3)CC1`: the IC50 was 24.8 µM [falling, partial curve].

Regarding `COc1ccc(-c2[nH]ncc2CN2CC[C@H]3CC[C@@H](C2)N3)cc1`, the IC50 is 19.2 µM [falling, partial curve].

For the molecule `CCc1c(Cl)c(O)c(Cl)c(O)c1C(=O)O[C@H]1[C@H](O)[C@H](OC)[C@H](OC/C2=C\C=C\C[C@H](O)/C(C)=C\[C@H](CC)[C@@H](O[C@@H]3OC(C)(C)[C@@H](OC(=O)C(C)C)[C@H](O)[C@@H]3O)/C(C)=C/C(C)=C/C[C@@H]([C@@H](C)O)OC2=O)O[C@@H]1C`, the concentration for half-maximal inhibition (IC50) is 10.5 µM [falling, partial curve].

For `CC(CNC(=O)c1nnn2c1c(=O)[nH]c1cc(F)ccc12)c1ccccc1` (stereo not given), the IC50 was 19.2 µM [falling, partial curve].

For `O=C(Nc1ccc2c(N3CCCC3)ncnc2c1)c1cc(F)ccc1Cl`, the IC50 was 2.15 µM [falling, full curve].

As to `CCC(=C(c1ccc(OCCN2CCCC2)cc1)c1ccc(OCCN2CCCC2)cc1)c1ccccc1`, the IC50 is 1.97 µM [falling, partial curve].

As to `OC1(Cn2ccnc2)CCN(Cc2ccccc2Cn2cccn2)CC1`, the 50% inhibitory concentration (IC50) was 19.2 µM [falling, partial curve].

As to `CC1(C)[C@H](Cc2cc(-c3ccccc3)on2)C[C@@H]1NCC1CC1`, the IC50 was 35 µM [falling, partial curve].

For the molecule `CNCCC(c1cccs1)c1ccc(O)c2ccccc12` (stereo not given), the IC50 was 9.61 µM [falling, partial curve].

Regarding `COCCN(C)Cc1ccc2nc3sc(C(=O)N(C)C4CCCCC4)cn3c2c1`, the IC50 was 5.41 µM [falling, full curve].

For the molecule `Cc1ccc(Cn2c(=O)c3ccccc3n3c(CCC(=O)NCCCN4CCN(C)CC4)nnc23)cc1`, the IC50 is 13.6 µM [falling, partial curve].

Regarding `CCCNc1cc(N2CCC(CCC(=O)NCCN3CCCCCC3)CC2)ncn1`, the IC50 was 21.5 µM [falling, partial curve, poor fit].

Take `COC(=O)C(Cc1c[nH]c2ccccc12)NC(=O)c1ccccc1Br` (stereo not given): the half-inhibitory concentration (IC50) is 19.2 µM [falling, partial curve].

Turning to `CN1CCCC2(C1)CN(C)c1ccc(C(=O)NCC3CCCCC3)cc12` (stereo not given), the IC50 was 12.4 µM [falling, partial curve].

Consider `O=C(CCc1nnc2n(Cc3ccccc3Cl)c(=O)c3ccccc3n12)N1CCC(N2CCCCC2)CC1`, for which the IC50 is 13.6 µM [falling, partial curve].

In the case of `CCn1cc(CN2CCCC23CCN(c2cc(C)nc4ccccc24)CC3)c(C)n1`, the IC50 was 21.5 µM [falling, partial curve].

With `CC1CCN(CCCNC(=O)CCc2nnc3n(Cc4ccccc4)c(=O)c4ccccc4n23)CC1`, the IC50 was 10.8 µM [falling, partial curve].

Regarding `Cc1ccc(S(=O)(=O)c2nnn3c2nc(N2CCC(N4CCCCC4)CC2)c2ccccc23)cc1C`, the IC50 was 0.764 µM [falling, full curve].

As to `COC(=O)C1=C(C)NC(C)=C(C(=O)OC)C1c1cccc(NC(=O)NCCCN2CCC(c3cccc(OC)c3)CC2)c1`, the IC50 is 21.5 µM [falling, partial curve].

As for `CCN1C(=O)c2ccccc2C1Nc1ccc(OCCN2CCCCC2)cc1` (stereo not given), the IC50 was 9.61 µM [falling, partial curve].

Turning to `CN1CCC(N2CC[C@H](c3nc4ccc(C(F)(F)F)cc4[nH]3)C2)CC1`, the IC50 is 31.2 µM [falling, partial curve].

For the molecule `Cn1c(=O)n(C)c2cc(S(=O)(=O)Nc3cc4c(cc3NCc3ccccc3)n(C)c(=O)n4C)ccc21`, the half-maximal inhibitory concentration (IC50) is 21.5 µM [falling, partial curve].

Consider `O=C(CCCc1nnc2n3nc(-c4ccccc4)nc3c3ccccc3n12)N1CCC(N2CCCCC2)CC1`, for which the IC50 is 9.61 µM [falling, partial curve].

For the molecule `COc1ccc(NC(=O)CCc2ccnc(N3CCCC3)c2)c(OC)c1`, the IC50 is 3.04 µM [falling, full curve].

`CCN(CC)CCNC(=O)CCc1nnc2n(Cc3ccc(C)cc3)c(=O)c3ccccc3n12`: the half-inhibitory concentration (IC50) is 17.1 µM [falling, partial curve].

Consider `O=C(Nc1ccccc1)c1cnc2c(c1)N(C(=O)Cc1ccc(O)cc1)CCC2`, for which the IC50 was 9.87 µM [falling, partial curve].
